Measured values from patent US8809377B2, “Deubiquitinase inhibitors and methods for use of the same” (The Regents of the University of Michigan, priority 2010, dated 2014).

Experiments:
[1] = system: methicillin-resistant Staphylococcus aureus (MRSA); assay: MRSA survival within macrophages; type: cell-based; conditions: RAW264.7 macrophages, 8 hr infection
USP9X = assay: Western / HA-UbVS labeling of USP9X in intact cells or lysates; type: cell-based; conditions: RAW264.7 cells, 5 μM, 2 hours

CCC[C@H](NC(=O)/C(C#N)=C/c1cccc(Br)n1)c1ccccc1 [WP1130]
decrease in survival of MRSA within macrophages [1]: 3-4 fold | Usp9x DUB activity (HA-UbVS) (USP9X): Usp9x inhibition
